Results: the supplement of paper PMC10369915
This is one part of the list. No stated cut-off is given here; in the data, active = 3.2 or more and inactive = the rest. Most of these values are background signal.

B1: BAG3_Y205_P209L (peptide)
chain: QLPRGYISILV
B2: BBS2_Y648_R643H (peptide)
chain: HYMELYDLNRD
B3: AVPR2_Y124_S127F_YF (peptide)
chain: QMVGMYASFFM
B4: BBS4_Y48_K46R_YF (peptide)
chain: FIRRDYEACKA
B5: BBS10_Y536_P539L_YF (peptide)
chain: NRLTDYFELLL
B6: AVPR2_Y117_C112R (peptide)
chain: RRAVKYLQMVG
B7: BACE1_Y260_V265A_YF (peptide)
chain: RREWFYEVIIA
B8: AVPR2_Y124_Y128S (peptide)
chain: QMVGMYASSSM
B9: B4GALNT2_Y538 (peptide)
chain: ALEKTYNTYRS
B10: BBS4_Y48_K46R (peptide)
chain: YIRRDYEACKA
B11: B4GALT4_Y113 (peptide)
chain: VSRGRYRPQEC
B12: AVPR2_Y124_YF (peptide)
chain: QMVGMYASSFM
B13: BCCIP_Y257 (peptide)
chain: EEEFFYEKAIL
B14: BBS4_Y43_K46R_YF (peptide)
chain: LIHLHYIRRDF
B15: B3GALNT1_Y269 (peptide)
chain: KFEDVYVGICL
B16: BARD1_Y156 (peptide)
chain: SKKVRYVVSKA
B17: BAG3_Y457_E455K (peptide)
chain: LMIKEYLTKEL
B18: AVPR2_Y124_S126F_YF (peptide)
chain: QMVGMYAFSFM
B19: BCAR1_Y410_S407T (peptide)
chain: VDTGVYAVPPP
B20: AVPR2_Y117_R113W (peptide)
chain: CWAVKYLQMVG
B21: BBS4_Y43_YF (peptide)
chain: LIHLHYIRKDF
B22: BBS2_Y644_YF (peptide)
chain: TMKSRYMELFD
B23: BBS10_Y536_P539L (peptide)
chain: NRLTDYYELLL
B24: BCHE_Y505 (peptide)
chain: ANFAKYGNPNE
B25: AVPR2_Y124_G122D (peptide)
chain: QMVDMYASSYM
B26: B3GALNT1_Y269_E266A (peptide)
chain: KFADVYVGICL
B27: B4GALNT2_Y538_YF (peptide)
chain: ALEKTYNTFRS
B28: BACE1_Y260 (peptide)
chain: RREWYYEVIIV
B29: AVPR2_Y117_G122R (peptide)
chain: CRAVKYLQMVR
B30: BBS10_Y536 (peptide)
chain: NRLTDYYEPLL
B31: BAG3_Y205 (peptide)
chain: QLPRGYISIPV
B32: BBS4_Y395 (peptide)
chain: NALAQYQEMEK
B33: AXL_Y115_T112M (peptide)
chain: SDMGQYQCLVF
B34: AVPR2_Y124_M123K_YF (peptide)
chain: QMVGKYASSFM
B35: BAG3_Y93 (peptide)
chain: QLRPGYIPIPV
B36: BCHE_Y174 (peptide)
chain: VVSMNYRVGAL
B37: ATRX_Y2083_YF (peptide)
chain: LRNIDYFRLDG

biological target: SHP2 C-SH2 domain E139D; assay: enrichment score (SH2-bound / input frequency) (ratio); bacterial display of known human phosphotyrosine sites (pTyr-Var adds point mutants) read by sequencing; higher = stronger binding; tyrosines were phosphorylated by kinases first; conditions: peptide library: pTyr-Var
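Further: displayed peptides selected on beads carrying the immobilized SH2 domain, with library peptides lacking any tyrosine serving as negative controls.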

| Binder | enrichment score |
| --- | --- |
| B1 | inactive: 0.783 |
| B2 | inactive: 1.09 |
| B3 | inactive: 0.905 |
| B4 | inactive: 0.692 |
| B5 | inactive: 2.43 |
| B6 | inactive: 0.435 |
| B7 | inactive: 0.281 |
| B8 | inactive: 0.684 |
| B9 | inactive: 0.657 |
| B10 | inactive: 0.446 |
| B11 | inactive: 0.243 |
| B12 | inactive: 0.586 |
| B13 | inactive: 0.812 |
| B14 | inactive: 1.49 |
| B15 | inactive: 0.895 |
| B16 | inactive: 1.06 |
| B17 | inactive: 1.83 |
| B18 | inactive: 0.712 |
| B19 | inactive: 0.508 |

| Binder | enrichment score |
| --- | --- |
| B20 | inactive: 2.69 |
| B21 | active: 3.83 |
| B22 | inactive: 1.09 |
| B23 | inactive: 1.51 |
| B24 | inactive: 0.655 |
| B25 | inactive: 1.4 |
| B26 | inactive: 0.994 |
| B27 | inactive: 0.701 |
| B28 | inactive: 0.258 |
| B29 | inactive: 0.759 |
| B30 | inactive: 1.03 |
| B31 | inactive: 0.887 |
| B32 | inactive: 0.43 |
| B33 | inactive: 0.786 |
| B34 | inactive: 1.1 |
| B35 | inactive: 0.792 |
| B36 | inactive: 1.25 |
| B37 | inactive: 2.2 |

biological target: SHP2 C-SH2 domain wild-type; assay: as above; conditions: peptide library: pTyr-Var

| Binder | enrichment score |
| --- | --- |
| B1 | inactive: 1.24 |
| B2 | inactive: 1.06 |
| B3 | inactive: 1.41 |
| B4 | inactive: 0.417 |
| B5 | inactive: 2.47 |
| B6 | inactive: 0.382 |
| B7 | inactive: 0.279 |
| B8 | inactive: 0.471 |
| B9 | inactive: 0.914 |
| B10 | inactive: 0.329 |
| B11 | inactive: 0.242 |
| B12 | inactive: 0.865 |
| B13 | inactive: 0.712 |
| B14 | inactive: 1.16 |
| B15 | inactive: 0.989 |
| B16 | inactive: 1.2 |
| B17 | inactive: 1.22 |
| B18 | inactive: 1.02 |
| B19 | inactive: 0.59 |

| Binder | enrichment score |
| --- | --- |
| B20 | inactive: 3.16 |
| B21 | active: 3.61 |
| B22 | inactive: 1 |
| B23 | inactive: 1.27 |
| B24 | inactive: 0.453 |
| B25 | inactive: 0.704 |
| B26 | inactive: 1.8 |
| B27 | inactive: 0.645 |
| B28 | inactive: 0.249 |
| B29 | inactive: 0.885 |
| B30 | inactive: 0.827 |
| B31 | inactive: 0.846 |
| B32 | inactive: 0.466 |
| B33 | inactive: 0.915 |
| B34 | inactive: 0.921 |
| B35 | inactive: 0.599 |
| B36 | inactive: 0.968 |
| B37 | active: 4.44 |

biological target: SHP2 N-SH2 domain L43F; assay: as above; conditions: peptide library: pTyr-Var

| Binder | enrichment score |
| --- | --- |
| B1 | inactive: 1.4 |
| B2 | active: 3.86 |
| B3 | inactive: 1.28 |
| B4 | inactive: 0.406 |
| B5 | inactive: 2.01 |
| B6 | inactive: 0.442 |
| B7 | inactive: 0.312 |
| B8 | inactive: 0.706 |
| B9 | inactive: 0.748 |
| B10 | inactive: 0.397 |
| B11 | inactive: 0.273 |
| B12 | inactive: 0.704 |
| B13 | inactive: 0.779 |
| B14 | inactive: 1.18 |
| B15 | inactive: 0.724 |
| B16 | inactive: 0.93 |
| B17 | inactive: 1.27 |
| B18 | inactive: 1.07 |
| B19 | inactive: 0.585 |

| Binder | enrichment score |
| --- | --- |
| B20 | inactive: 3.1 |
| B21 | active: 4.07 |
| B22 | inactive: 1.53 |
| B23 | inactive: 1.28 |
| B24 | inactive: 0.491 |
| B25 | inactive: 0.785 |
| B26 | inactive: 1.23 |
| B27 | inactive: 0.635 |
| B28 | inactive: 0.243 |
| B29 | inactive: 0.698 |
| B30 | inactive: 0.861 |
| B31 | inactive: 0.631 |
| B32 | inactive: 0.554 |
| B33 | inactive: 0.769 |
| B34 | inactive: 0.955 |
| B35 | inactive: 0.801 |
| B36 | inactive: 1.21 |
| B37 | inactive: 0.923 |

biological target: SHP2 N-SH2 domain T42A; assay: as above; conditions: peptide library: pTyr-Var

| Binder | enrichment score |
| --- | --- |
| B1 | inactive: 1.45 |
| B2 | active: 4.86 |
| B3 | inactive: 1.24 |
| B4 | inactive: 0.467 |
| B5 | inactive: 2.61 |
| B6 | inactive: 0.386 |
| B7 | inactive: 0.186 |
| B8 | inactive: 0.746 |
| B9 | inactive: 0.768 |
| B10 | inactive: 0.361 |
| B11 | inactive: 0.214 |
| B12 | inactive: 0.463 |
| B13 | inactive: 0.743 |
| B14 | inactive: 1.12 |
| B15 | inactive: 0.72 |
| B16 | inactive: 1.05 |
| B17 | inactive: 1.16 |
| B18 | inactive: 0.694 |
| B19 | inactive: 0.633 |

| Binder | enrichment score |
| --- | --- |
| B20 | inactive: 2.97 |
| B21 | active: 3.21 |
| B22 | active: 4.08 |
| B23 | inactive: 1.41 |
| B24 | inactive: 0.475 |
| B25 | inactive: 1.02 |
| B26 | inactive: 0.996 |
| B27 | inactive: 0.5 |
| B28 | inactive: 0.271 |
| B29 | inactive: 1.48 |
| B30 | inactive: 0.779 |
| B31 | inactive: 0.853 |
| B32 | inactive: 0.481 |
| B33 | inactive: 0.829 |
| B34 | inactive: 0.844 |
| B35 | inactive: 0.678 |
| B36 | inactive: 1.23 |
| B37 | inactive: 1.41 |

biological target: SHP2 N-SH2 domain T52S; assay: as above; conditions: peptide library: pTyr-Var

| Binder | enrichment score |
| --- | --- |
| B1 | inactive: 1.67 |
| B2 | active: 3.59 |
| B3 | inactive: 1.35 |
| B4 | inactive: 0.576 |
| B5 | inactive: 2.48 |
| B6 | inactive: 0.479 |
| B7 | inactive: 0.154 |
| B8 | inactive: 0.611 |
| B9 | inactive: 0.655 |
| B10 | inactive: 0.295 |
| B11 | inactive: 0.201 |
| B12 | inactive: 0.489 |
| B13 | inactive: 0.924 |
| B14 | inactive: 1.48 |
| B15 | inactive: 0.882 |
| B16 | inactive: 1.22 |
| B17 | inactive: 1.31 |
| B18 | inactive: 0.854 |
| B19 | inactive: 0.601 |

| Binder | enrichment score |
| --- | --- |
| B20 | inactive: 2.55 |
| B21 | active: 3.55 |
| B22 | inactive: 1.59 |
| B23 | inactive: 1.48 |
| B24 | inactive: 0.588 |
| B25 | inactive: 1.06 |
| B26 | inactive: 1.77 |
| B27 | inactive: 0.756 |
| B28 | inactive: 0.331 |
| B29 | inactive: 0.819 |
| B30 | inactive: 1.02 |
| B31 | inactive: 0.815 |
| B32 | inactive: 0.667 |
| B33 | inactive: 0.76 |
| B34 | inactive: 0.84 |
| B35 | inactive: 0.885 |
| B36 | inactive: 1.14 |
| B37 | inactive: 0.861 |

biological target: SHP2 N-SH2 domain wild-type; assay: as above; conditions: peptide library: pTyr-Var

| Binder | enrichment score |
| --- | --- |
| B1 | inactive: 1.09 |
| B2 | inactive: 0.938 |
| B3 | inactive: 1.41 |
| B4 | inactive: 0.585 |
| B5 | inactive: 2.57 |
| B6 | inactive: 0.341 |
| B7 | inactive: 0.133 |
| B8 | inactive: 0.417 |
| B9 | inactive: 0.807 |
| B10 | inactive: 0.381 |
| B11 | inactive: 0.211 |
| B12 | inactive: 0.807 |
| B13 | inactive: 0.829 |
| B14 | inactive: 1.32 |
| B15 | inactive: 1.04 |
| B16 | inactive: 1.18 |
| B17 | inactive: 1.24 |
| B18 | inactive: 1.01 |
| B19 | inactive: 0.873 |

| Binder | enrichment score |
| --- | --- |
| B20 | inactive: 3.08 |
| B21 | active: 4.28 |
| B22 | inactive: 0.961 |
| B23 | inactive: 1.35 |
| B24 | inactive: 0.697 |
| B25 | inactive: 0.741 |
| B26 | inactive: 1.68 |
| B27 | inactive: 0.812 |
| B28 | inactive: 0.225 |
| B29 | inactive: 0.733 |
| B30 | inactive: 1.03 |
| B31 | inactive: 0.733 |
| B32 | inactive: 0.608 |
| B33 | inactive: 1.18 |
| B34 | inactive: 1.03 |
| B35 | inactive: 1 |
| B36 | inactive: 0.951 |
| B37 | inactive: 0.87 |
